Results published in PMC11126936, “Reactivating Hippo by drug compounds to suppress gastric cancer and enhance chemotherapy sensitivity” (The Journal of Biological Chemistry, 2024).
Where “and” joins values, the source holds several entries; their conditions need not be identical. Equal entries are not always repeated. Structures can show the parent of a compound that is named as a salt.

biological target: T1, STRN3–MST2 interaction (Homo sapiens, UniProt Q13188); assay: Primary AlphaScreen, STRN3–MST2 disruption (Table S3); format: binding; parameters: His-SUMO; made in house; host or cells: E. coli BL21 Codon plus (DE3); conditions: not given
T1 sequence (Q13188 1-491): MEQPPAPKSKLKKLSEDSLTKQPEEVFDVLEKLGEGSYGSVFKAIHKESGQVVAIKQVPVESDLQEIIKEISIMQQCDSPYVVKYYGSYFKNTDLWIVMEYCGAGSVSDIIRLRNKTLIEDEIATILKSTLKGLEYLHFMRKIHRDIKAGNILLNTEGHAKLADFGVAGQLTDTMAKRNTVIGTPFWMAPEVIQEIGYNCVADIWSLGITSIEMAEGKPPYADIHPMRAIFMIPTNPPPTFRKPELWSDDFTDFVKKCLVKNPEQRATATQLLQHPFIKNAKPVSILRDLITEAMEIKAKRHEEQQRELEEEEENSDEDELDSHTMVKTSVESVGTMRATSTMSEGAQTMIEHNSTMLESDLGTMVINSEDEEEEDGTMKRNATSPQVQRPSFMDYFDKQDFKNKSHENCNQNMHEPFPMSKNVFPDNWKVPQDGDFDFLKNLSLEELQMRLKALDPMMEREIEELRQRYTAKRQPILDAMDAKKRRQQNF

Molecule | Inhibition rate (%)
C[N+](C)(C)CC(=O)O [BETAINE HYDROCHLORIDE] | -4.318%
CNC1CCCN(c2c(F)cc3c(=O)c(C(=O)O)cn(C4CC4)c3c2OC)C1 (stereo not drawn) [Balofloxacin] | 7.865%
OC[C@H]1O[C@@H](OCCc2ccc(O)cc2)[C@H](O)[C@@H](O)[C@@H]1O [Salidroside] | 1.142%
NCCS(=O)(=O)O [Taurine] | -4.763%

biological target: T1, STRN3–MST2 interaction; assay: Second-round validation AlphaScreen, STRN3–MST2 disruption (Table S4); conditions: not given

Molecule | Inhibition rate (%)
6-BIO | 88.2157%
Cl.Fc1ccc(-n2cc(CCCCN3CCC4(CC3)OCc3ccccc34)c3ccccc32)cc1 [Lu-28-179] | 47.2529%
COc1ccc(C(=C2C(=O)Nc3ccccc32)c2ccc(OC)cc2)cc1 [TAS-301] | 47.0007%

same assay, conditions: 2nd round validation screen, STRN3-MST2 disruption

Molecule | Inhibition rate (%)
COC1CCN(C(=O)c2cc(Cc3n[nH]c(=O)c4ccccc34)ccc2F)CC1 [AZD2461] | 76.6732%
C=CC(=O)Nc1cc(Nc2nccc(-c3cn(C)c4ccccc34)n2)c(OC)cc1N(C)CCN(C)C [AZD9291] | 30.3363%
CCCCc1oc2ccccc2c1C(=O)c1cc(I)c(OCCN(CC)CC)c(I)c1 [Amiodarone hydrochloride] | 20.8848%
CN(C)Cc1ccc(-c2cnn3c(-c4cccc(NC(=O)c5cccc(C(F)(F)F)c5)c4)ccnc23)cc1 [B-Raf IN 1] | 14.4684%
Cc1c(-c2ccc(O)cc2)n(Cc2ccc(OCCN3CCCCCC3)cc2)c2ccc(O)cc12 [Bazedoxifene acetate] | 49.7454%
COc1c2ccoc2cc2oc(=O)ccc12 [Bergapten] | 93.9669%
COc1cc(-c2ccc(N=Nc3ccc4c(S(=O)(=O)[O-])cc(S(=O)(=O)[O-])c(N)c4c3O)c(OC)c2)ccc1N=Nc1ccc2c(S(=O)(=O)[O-])cc(S(=O)(=O)[O-])c(N)c2c1O.[Na+].[Na+].[Na+].[Na+] [CHICAGO SKY BLUE 6B] | 87.119%
[H]/N=C(\N/C(=N/[H])NCCCCCCNC(=N)NC(=N)Nc1ccc(Cl)cc1)Nc1ccc(Cl)cc1 [Chlorhexidine] | 57.6546%
CC(C)/N=c1\cc2n(-c3ccc(Cl)cc3)c3ccccc3nc-2cc1Nc1ccc(Cl)cc1 [Clofazimine] | 65.1805%
CCN1c2cc(N)ccc2-c2ccc(N)cc2C1c1ccccc1 (stereo not drawn) [Dihydroethidium] | 84.1416%
CO[C@H]1C[C@H](O[C@H]2[C@H](C)O[C@@H](O[C@@H]3/C(C)=C/C[C@@H]4C[C@@H](C[C@]5(C=C[C@H](C)[C@@H](C6CCCCC6)O5)O4)OC(=O)[C@@H]4C=C(C)[C@@H](O)[C@H]5OC/C(=C\C=C\[C@@H]3C)[C@]54O)C[C@@H]2OC)O[C@@H](C)[C@@H]1O [Doramectin] | 41.6226%
Cc1cc(O)c2c(c1)C(=O)c1cc(O)cc(O)c1C2=O [Emodin] | 36.2891%
Cc1cc(-c2ccc(/N=N/c3ccc4c(S(=O)(=O)O)cc(S(=O)(=O)O)c(N)c4c3O)c(C)c2)ccc1/N=N/c1ccc2c(S(=O)(=O)O)cc(S(=O)(=O)O)c(N)c2c1O [Evans blue] | 90.1602%
Cc1ccc(C(=O)Nc2ccc(CN3CCN(C)CC3)c(C(F)(F)F)c2)cc1C#Cc1cnc2[nH]ncc2c1 [GZD824 Dimesylate] | 16.2097%
CC(C)c1cc(-c2n[nH]c(=O)n2-c2ccc3c(ccn3C)c2)c(O)cc1O [Ganetespib] | 75.2321%
CC1(C)S[C@@H]2[C@H](N3C(=O)[C@@H](c4ccccc4)NC3(C)C)C(=O)N2[C@H]1C(=O)O [HETACILLIN POTASSIUM] | 87.1783%
NNc1nncc2ccccc12 [Hydralazine HCl] | 79.9365%
O=C1c2c(O)ccc(O)c2C(=O)c2c(NCCNCCO)ccc(NCCNCCO)c21 [Mitoxantrone HCl] | 30.5153%
CO/N=C1\C[C@]2(C[C@@H]3C[C@@H](C/C=C(\C)C[C@@H](C)/C=C/C=C4\CO[C@@H]5[C@H](O)C(C)=C[C@@H](C(=O)O3)[C@]45O)O2)O[C@H](/C(C)=C/C(C)C)[C@H]1C [Moxidectin] | 46.6799%

Molecule | Inhibition rate (%)
C/C(=N\NC(=S)N1CCC1)c1ccccn1 [NSC319726] | 61.8353%
O=[N+]([O-])c1ccc(O)c2ncccc12 [Nitroxoline] | 95.2288%
CCOc1cc2ncc(C#N)c(Nc3ccc(F)c(Cl)c3)c2cc1NC(=O)/C=C/CN(C)C [Pelitinib (EKB-569), Pelitinib] | 20.6862%
NCCOc1cc(C(=O)Nc2cc(OCCN)c3ccccc3n2)nc(C(=O)Nc2cc(OCCN)c3ccccc3n2)c1 [Pyridostatin] | 6.622%
CNC(=O)c1cc(Oc2ccc(NC(=O)Nc3ccc(Cl)c(C(F)(F)F)c3)c(F)c2)ccn1 [Regorafenib] | 75.384%
CO[C@H]1C[C@H](O[C@@H]2/C(C)=C/C[C@@H]3C[C@@H](C[C@]4(CC[C@H](C)[C@@H](C5CCCCC5)O4)O3)OC(=O)[C@@H]3C=C(C)/C(=N/O)[C@H]4OC/C(=C\C=C\[C@@H]2C)[C@]43O)O[C@@H](C)[C@@H]1O [SelaMeerin] | 41.6773%
O=C(O)c1cc(O)c2c(c1)[C@@H]([C@H]1c3cc(C(=O)O)cc(O)c3C(=O)c3c(O[C@@H]4O[C@H](CO)[C@@H](O)[C@H](O)[C@H]4O)cccc31)c1cccc(O[C@@H]3O[C@H](CO)[C@@H](O)[C@H](O)[C@H]3O)c1C2=O [Sennoside B] | 68.5523%
COc1cc(NS(=O)(=O)c2ccc(N)cc2)ncn1 [Sulfamonomethoxine] | 16.2459%
Cc1ccc(C(=O)Nc2ccc(S(=O)(=O)[O-])c3cc(S(=O)(=O)[O-])cc(S(=O)(=O)[O-])c23)cc1NC(=O)c1cccc(NC(=O)Nc2cccc(C(=O)Nc3cc(C(=O)Nc4ccc(S(=O)(=O)[O-])c5cc(S(=O)(=O)[O-])cc(S(=O)(=O)[O-])c45)ccc3C)c2)c1.[Na+].[Na+].[Na+].[Na+].[Na+].[Na+] [Suramin Sodium Salt] | 94.3899%
COc1cc(N2CCC(N3CCN(C)CC3)CC2)ccc1Nc1ncc(Cl)c(Nc2ccccc2S(=O)(=O)C(C)C)n1 [TAE684 (NVP-TAE684), TAE684] | 66.6494%
CCCCCCCCCCCCCCCC[N+](C)(C)CCN(Cc1ccc(OC)cc1)c1ncccn1 [THONZONIUM BROMIDE] | 76.4113%
CC[C@@H](c1cccc(O)c1)[C@@H](C)CN(C)C.Cl [Tapentadol Hydrochloride] | 25.2716%
CC(C)N1CCN(c2ccc(OCC3COC(Cn4cncn4)(c4ccc(Cl)cc4Cl)O3)cc2)CC1 (stereo not drawn) [Terconazole] | 23.916%
NCC(=O)Nc1ccc(-n2nc(C(F)(F)F)cc2-c2ccc3c(ccc4ccccc43)c2)cc1 [osu-03012] | 60.145%
Abamectin | 42.4888%
Chlorophyllin | 76.8494%
Glycerite | 90.7883% and 47.3631%
Spiramycin | 3.299%
Teicoplanin | -18.5957%

biological target: T2, PP2Aa–STRN3 interaction (Homo sapiens, UniProt P30153); assay: Second-round validation AlphaScreen, PP2Aa–STRN3 disruption (Table S2); format: binding; parameters: GST; SUMO; made in house; host or cells: E. coli BL21 Codon plus (DE3); conditions: not given
T2 sequence (P30153 8-589): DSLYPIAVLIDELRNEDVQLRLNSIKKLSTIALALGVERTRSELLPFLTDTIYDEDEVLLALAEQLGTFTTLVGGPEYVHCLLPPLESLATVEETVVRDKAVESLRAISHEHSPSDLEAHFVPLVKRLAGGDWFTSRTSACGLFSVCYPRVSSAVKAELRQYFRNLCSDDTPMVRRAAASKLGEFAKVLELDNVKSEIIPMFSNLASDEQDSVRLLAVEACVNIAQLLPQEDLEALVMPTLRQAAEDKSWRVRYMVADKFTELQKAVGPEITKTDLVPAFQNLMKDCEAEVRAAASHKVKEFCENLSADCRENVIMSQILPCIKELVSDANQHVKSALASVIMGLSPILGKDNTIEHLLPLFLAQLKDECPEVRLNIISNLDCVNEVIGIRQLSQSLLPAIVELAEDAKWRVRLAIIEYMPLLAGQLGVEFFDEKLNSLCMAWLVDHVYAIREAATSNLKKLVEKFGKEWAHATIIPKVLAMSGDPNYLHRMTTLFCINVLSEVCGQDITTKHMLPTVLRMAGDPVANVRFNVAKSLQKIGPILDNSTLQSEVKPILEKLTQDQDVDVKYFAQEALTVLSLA

Molecule | Inhibition rate (%)
COc1cc(N2CCC(N)CC2)ccc1Nc1ncc(Cl)c(-c2c[nH]c3ccccc23)n1 [AZD3463] | 68.7355%
CC1=C(O)C(=O)C=C2C1=CC=C1[C@@]2(C)CC[C@@]2(C)[C@@H]3C[C@](C)(C(=O)O)CC[C@]3(C)CC[C@]12C [CELASTROL] | 72.492%
CC(=O)OCC1=C(C(=O)O)N2C(=O)[C@@H](NC(=O)CCC[C@@H](N)C(=O)O)[C@H]2SC1 [CEPHALOSPORIN C] | 0.4468%
CC(C)CN(C[C@@H](O)[C@H](Cc1ccccc1)NC(=O)O[C@H]1CO[C@H]2OCC[C@H]21)S(=O)(=O)c1ccc(N)cc1.CCO [Darunavir Ethanolate] | 6.102%
COc1cc(OC)c(C=C2C(O)=Nc3ccccc32)c(OC)c1 [IC261] | 12.0025%
CCOc1cc2ncc(C#N)c(Nc3ccc(OCc4ccccn4)c(Cl)c3)c2cc1NC(=O)/C=C/CN(C)C [Neratinib(HKI-272), Neratinib] | 14.7133%
NCCNc1ccc(NCCN)c2c1C(=O)c1ccncc1C2=O.O=C(O)/C=C\C(=O)O.O=C(O)/C=C\C(=O)O [Pixantrone dimaleate] | 67.3515%
O=C1NC(=NCc2cccs2)S/C1=C\c1ccc2ncccc2c1 [Ro-3306] | 7.46%
C[n+]1cc2c3c(ccc2c2ccc4cc5c(cc4c21)OCO5)OCO3 [SANGUINARIUM CHLORIDE] | 78.0644%

biological target: PP2Aa–STRN3–PP2Ac holophosphatase (Homo sapiens, UniProt P30153); assay: not given; conditions: in vitro, dose-dependent
Sequence (P30153 8-589): as above
Sequence (P67775 whole entry partner): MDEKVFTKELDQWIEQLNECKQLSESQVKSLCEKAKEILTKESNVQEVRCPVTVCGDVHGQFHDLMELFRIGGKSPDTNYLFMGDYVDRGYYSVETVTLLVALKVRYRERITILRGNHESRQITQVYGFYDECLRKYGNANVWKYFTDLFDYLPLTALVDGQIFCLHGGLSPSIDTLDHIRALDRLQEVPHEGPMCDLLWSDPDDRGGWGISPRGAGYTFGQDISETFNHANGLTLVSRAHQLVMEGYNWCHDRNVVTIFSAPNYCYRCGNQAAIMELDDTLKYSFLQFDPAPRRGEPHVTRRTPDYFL

Molecule | phosphorylation level of MST1/2 (pMST1/2) in dephosphorylation assay
CCN(CC)C(=S)SSC(=S)N(CC)CC [DSF, disulfiram] | dramatically recovered
CN(C)C(=S)SSC(=S)N(C)C [TH, thiram] | dose-dependently recover

biological target: T2, PP2Aa–STRN3 interaction; assay: First-round AlphaScreen, PP2Aa–STRN3 disruption (Table S1); conditions: primary AlphaScreen

Molecule | Inhibition rate (%)
C[N+](C)(C)CC(=O)O [BETAINE HYDROCHLORIDE] | -6.8536%
CNC1CCCN(c2c(F)cc3c(=O)c(C(=O)O)cn(C4CC4)c3c2OC)C1 (stereo not drawn) [Balofloxacin] | -3.154%
OC[C@H]1O[C@@H](OCCc2ccc(O)cc2)[C@H](O)[C@@H](O)[C@@H]1O [Salidroside] | -7.759%
NCCS(=O)(=O)O [Taurine] | -6.659%
